In PubChem BioAssay AID2708 (National Center for Advancing Translational Sciences (NCATS), 2010):
The inconclusive results got no clear call from the source; some entries with a clear call stand among them for comparison. Potencies of inconclusive entries are left out as doubtful fits. Activity calls are given as the source filed them. The call rests on the fitted dose curve; in most records, active means well fitted inhibition curve with a large enough effect; inconclusive means small, poorly fitted or top-dose-only effect; inactive means no such curve, though single readings can be large or run the other way.
Further: nearly all actives have a fitted effect of over 45% in size.
Potency means the concentration at half of the fitted maximal effect; tags describe the fitted curve by direction and shape.

What follows are molecules tested against ATP-dependent DNA helicase Q1 (Homo sapiens) (UniProt P46063) (assay: Confirmation qHTS Assay for Inhibitors of RecQ-Like Dna Helicase 1 (RECQ1)). Settings: RECQ1 helicase DNA unwinding, fluorescence; series mostly up to 229 µM.
Chain of UniProt P46063 (P46063 whole entry, looked up): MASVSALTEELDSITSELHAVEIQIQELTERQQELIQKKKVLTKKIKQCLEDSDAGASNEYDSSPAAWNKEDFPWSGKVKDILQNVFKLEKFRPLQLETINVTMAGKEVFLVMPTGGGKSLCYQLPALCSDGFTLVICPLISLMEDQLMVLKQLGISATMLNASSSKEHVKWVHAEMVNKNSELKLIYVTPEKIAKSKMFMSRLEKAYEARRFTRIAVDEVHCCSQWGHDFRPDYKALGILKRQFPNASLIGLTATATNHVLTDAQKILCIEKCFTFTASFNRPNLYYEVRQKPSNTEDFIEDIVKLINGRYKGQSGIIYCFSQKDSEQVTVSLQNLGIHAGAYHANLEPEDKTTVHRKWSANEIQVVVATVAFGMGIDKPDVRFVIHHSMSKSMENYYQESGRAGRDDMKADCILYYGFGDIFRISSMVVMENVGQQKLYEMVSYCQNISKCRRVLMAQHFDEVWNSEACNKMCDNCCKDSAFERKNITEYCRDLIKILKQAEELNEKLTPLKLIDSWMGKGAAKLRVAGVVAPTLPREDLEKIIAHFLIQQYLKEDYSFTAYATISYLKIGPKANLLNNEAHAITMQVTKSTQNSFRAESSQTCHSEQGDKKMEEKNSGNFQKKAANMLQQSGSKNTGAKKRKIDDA
In short: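 RECQ1T1 50 nM; forked duplex (20 bp + 30-nt ss tails) 200 nM, ATP 2 mM final; pH 8.0, 2 mM MgCl2, 2.5 ug/ml poly(dI-dC); 15 min compound preincubation; discontinuous kinetic read over 2 h at RT.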
In the case of `Cc1cc2nc3c(=O)[nH]c(=O)nc-3n(CC(O)C(O)C(O)CO)c2cc1C` (stereo not drawn), the Potency is reported as active: 112 µM. With `O=C(c1ccco1)N(CCC(c1ccccc1)c1ccco1)Cc1ccccc1` (stereo not drawn) the Potency was inconclusive [inhibitor, single point]. In the case of `Cc1ccc(/C=C2\SC(=S)N(Cc3ccccc3)C2=O)o1`, the Potency is reported as inconclusive [inhibitor, single point].
